# Screen size: about 110,000 compounds; about 230 (0.21%) showed an effect of 50% or more. Some of the results follow.
# Target: DPAP1 (Plasmodium falciparum, UniProt Q8IIJ9)
# Assay: primary screen, percent inhibition; read by cleavage of a fluorogenic dipeptide substrate; higher = more effect of the substance
# Parameters: species or system P. falciparum D10 trophozoite lysates; single well
# 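Also: 30 min substrate incubation versus DMSO and 10 µM JCP410 controls.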
# Sequence of DPAP1 (Q8IIJ9 whole entry, looked up): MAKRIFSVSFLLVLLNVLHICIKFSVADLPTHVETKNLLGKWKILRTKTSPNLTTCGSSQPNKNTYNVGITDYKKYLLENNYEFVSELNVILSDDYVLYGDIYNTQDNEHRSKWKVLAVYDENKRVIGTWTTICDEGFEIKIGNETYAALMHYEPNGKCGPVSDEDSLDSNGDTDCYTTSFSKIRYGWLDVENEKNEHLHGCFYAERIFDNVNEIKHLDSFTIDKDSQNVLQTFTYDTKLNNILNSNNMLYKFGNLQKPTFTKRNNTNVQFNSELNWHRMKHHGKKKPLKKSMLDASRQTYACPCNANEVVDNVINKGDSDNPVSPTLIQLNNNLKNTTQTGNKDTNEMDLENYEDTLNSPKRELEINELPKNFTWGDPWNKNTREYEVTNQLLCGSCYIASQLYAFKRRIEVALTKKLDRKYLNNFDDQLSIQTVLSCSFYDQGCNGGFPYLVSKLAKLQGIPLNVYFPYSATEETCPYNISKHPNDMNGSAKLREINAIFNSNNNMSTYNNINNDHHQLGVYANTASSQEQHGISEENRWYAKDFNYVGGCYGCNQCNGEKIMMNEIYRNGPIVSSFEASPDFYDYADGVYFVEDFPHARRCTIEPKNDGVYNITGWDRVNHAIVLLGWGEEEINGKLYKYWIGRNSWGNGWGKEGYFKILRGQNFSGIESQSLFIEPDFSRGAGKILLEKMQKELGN
row,SMILES,% Inhibition @ 10 uM [%]
1,CC(=O)N(CC(=O)Nc1sc2c(c1C(=O)Nc1ccc(Br)cc1)CCC2)C(C)C,-2.66
2,COc1cc(OC)cc(C(=O)N2CCN(Cc3ccc(OC)c(OC)c3OC)CC2)c1,-0.478
3,Cc1ccccc1N(CC(=O)NC1CC2CCC1C2)S(=O)(=O)c1ccccc1 (stereo not drawn),-4.82
4,C=CCn1c(SCC)nc2c(c1=O)C(C)(C)Cc1ccccc1-2,2.38
5,COc1ccc(C(CC(=O)O)NC(=O)Cc2ccccc2)cc1 (stereo not drawn),2.7
6,Cc1cc(NC(=O)CSc2nnc(Cc3cccn3C)n2-c2cccc(C)c2C)no1,2.12
7,COc1cc(-c2noc(-c3cc4c(ccc5ccccc54)oc3=O)n2)cc(OC)c1OC,2.73
8,COc1cccc(OCc2ccc(C(=O)O)cc2)c1,1.96
9,CC(=O)c1cn(-c2ccc(CCc3ccc(-n4c(=O)[nH]cc(C(C)=O)c4=O)cc3)cc2)c(=O)[nH]c1=O,-4.68
10,Cc1ccccc1NC(=O)CC1(c2ccccc2)C(=O)c2ccccc2C1=O,1.7
11,COCCCNC(=O)c1c(C)oc2ncn(C)c(=O)c12,-2.19
12,CCCN1CCC(NCCc2ccccc2F)CC1,3.18
13,COc1ccc(-c2cc3nc(C)cc(O)n3n2)cc1,3.16
14,COc1ccc2c(c1OC)C(=O)OC2Nc1cc(C)ccn1 (stereo not drawn),-1.47
15,CC(C)C(C(=O)Nc1ccc(Br)cc1)N1C(=O)c2ccccc2C1=O (stereo not drawn),1.96
16,O=C1NC(=O)C(=Cc2ccccc2OCCO)C(=O)N1,-0.597
17,Cc1ccccc1NCN1C(=O)C2CCCCC2C1=O (stereo not drawn),3.91
18,CCc1ccc2ncc(S(=O)(=O)c3ccccc3)c(N3CCOCC3)c2c1,-7.84
19,CCC(C)(Nc1ccc(Cl)cc1)c1nnnn1C(/C=C\c1ccc(Cl)cc1Cl)C(C)(C)C (stereo not drawn),-1.29
20,CCC(CC)NCc1c[nH]c2ccccc12,-0.034
21,Cc1nn(C(C)C(=O)NCCCN2CCc3ccccc3C2)c(=O)c2c1sc1ccccc12 (stereo not drawn),-6.3
22,O=C(CN(Cc1ccc(F)cc1)S(=O)(=O)c1ccccc1)Nc1ccccc1Br,-6.81
23,O=S(=O)(c1ccc(C2CCCCC2)cc1)N1CCn2c(nc3ccccc32)C1,0.66
24,O=C(NCCCc1ccccc1)c1cnc2ccccn2c1=O,3.32
25,CCN1C(=O)/C(=C\c2ccc(C)cc2)C(C(=O)OC)=C1C,-4.93
26,O=C(Nc1ccccc1C(=O)N1CCCCCC1)c1ccc(F)cc1,2.49
27,CCO/C(O)=C1\C(C)=Nc2nnnn2C1c1ccc(OC)c(Br)c1 (stereo not drawn),0.565

# Source: publication PMC6919601, “Identification of Plasmodium dipeptidyl aminopeptidase allosteric inhibitors by high throughput screening” (PLoS ONE, 2019)
